The other results are listed elsewhere or left out. Values were computed here from the reads of four pooled replicates and scatter widely.

Experimental findings from the BET-seq Pho4 binding data (Le et al. 2018) are described below.

This test concerns the target T1, Pho4 (S. cerevisiae) (UniProt P07270).
T1 sequence: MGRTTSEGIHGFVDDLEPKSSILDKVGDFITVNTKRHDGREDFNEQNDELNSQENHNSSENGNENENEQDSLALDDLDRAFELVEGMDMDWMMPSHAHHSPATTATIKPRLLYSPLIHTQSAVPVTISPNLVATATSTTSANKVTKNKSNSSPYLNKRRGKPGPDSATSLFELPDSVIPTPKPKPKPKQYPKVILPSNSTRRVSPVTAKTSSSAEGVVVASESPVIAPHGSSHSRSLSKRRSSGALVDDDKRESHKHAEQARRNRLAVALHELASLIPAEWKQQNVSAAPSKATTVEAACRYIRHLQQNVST
Description: relative binding free energy (BET-seq); higher = weaker binding. As to conditions: reference: library average.
As for ATTAGCACGTGTGGGC, the “relative binding free energy” value was 0.06 kcal/mol.

As for TTAGACACGTGAAGTG, the “relative binding free energy” value came out at 0.2 kcal/mol. For AGTCTCACGTGTGGTG the value was 0.13 kcal/mol. The same measure for GGTGGCACGTGCAGCT: -0.06 kcal/mol; for TCTGTCACGTGCGTAA: 0.34 kcal/mol. For AAGGCCACGTGGGGGT the value was -0.29 kcal/mol; for GAGCGCACGTGTTAGG, -0.03 kcal/mol. Turning to TTGGGCACGTGAATTT, the “relative binding free energy” value was 0.22 kcal/mol.

As for ATGCGCACGTGATGAG, the “relative binding free energy” value is -0.02 kcal/mol. For TGTGACACGTGTGTAC the value was 0.05 kcal/mol; for ATCGGCACGTGATGGC, 0.09 kcal/mol. The same measure for TGTTCCACGTGTAAGA: 0.11 kcal/mol; for AGTGGCACGTGTTTTT: -0.03 kcal/mol.

Regarding TGTCACACGTGGGAGG, the “relative binding free energy” value worked out at 0 kcal/mol. In the case of AGGGTCACGTGCTGAG, the “relative binding free energy” value came out at 0.04 kcal/mol. In the case of GGGTTCACGTGTGCGG, the “relative binding free energy” value worked out at 0.24 kcal/mol. The same measure for TAACTCACGTGCGGGG: 0.15 kcal/mol. For GGTCGCACGTGTTAGT the value was 0.08 kcal/mol.

ATTTTCACGTGCGTAG: the “relative binding free energy” value came to 0.2 kcal/mol.

AGTTTCACGTGGAGAA: the “relative binding free energy” value was determined as 0.28 kcal/mol.

For the sequence TAATTCACGTGGAGAT, the “relative binding free energy” value worked out at 0.35 kcal/mol. Regarding GTAGACACGTGGGCAG, the “relative binding free energy” value was -0.13 kcal/mol. The same measure for TCATGCACGTGGGTGA: 0.02 kcal/mol; for AAAAACACGTGTGTGG: 0.14 kcal/mol. As to GATATCACGTGTAATT, the “relative binding free energy” value is 0.18 kcal/mol. For GTCGACACGTGTTGGA the value was 0.21 kcal/mol. Turning to ATTTTCACGTGAGTCA, the “relative binding free energy” value was found to be 0.31 kcal/mol. For TTGGGCACGTGGTATT the value was -0.07 kcal/mol; for CGGTTCACGTGATGTG, 0.29 kcal/mol; for GTAGTCACGTGCATTG, 0.09 kcal/mol. The same measure for AGTGGCACGTGCTATG: -0.13 kcal/mol; for GGCCTCACGTGGAGTT: 0.48 kcal/mol; for GTGGGCACGTGCGTAT: -0.06 kcal/mol. The same measure for GGTGTCACGTGAGGCA: 0.19 kcal/mol. Regarding ATTTTCACGTGTATCG, the “relative binding free energy” value was found to be 0.26 kcal/mol.

Regarding CGCGGCACGTGATAGT, the “relative binding free energy” value was found to be 0.13 kcal/mol. As to GATTACACGTGATGGA, the “relative binding free energy” value amounted to 0.38 kcal/mol.

With ATGATCACGTGTTTGC, the “relative binding free energy” value is 0.08 kcal/mol. For TGGTACACGTGAGGAA the value was 0.32 kcal/mol.

For TAGCTCACGTGTGGGA, the “relative binding free energy” value stood at 0.28 kcal/mol.

ATAGTCACGTGGCGCG: the “relative binding free energy” value was found to be 0.01 kcal/mol. For TGAGTCACGTGGATGC the value was 0.07 kcal/mol.

Take GTCTTCACGTGTAGGA: the “relative binding free energy” value is 0.33 kcal/mol. The same measure for TGGCTCACGTGAGGGA: 0.32 kcal/mol. For AAAGTCACGTGAGGGG the value was 0.21 kcal/mol; for GGGGTCACGTGTAAGA, 0.21 kcal/mol; for TGTGTCACGTGATTTA, 0.28 kcal/mol. The same measure for TGCGTCACGTGGAGTA: 0.12 kcal/mol; for ATTTTCACGTGTACTA: 0.18 kcal/mol. On to GGTCTCACGTGGCGGA, for which the “relative binding free energy” value amounted to 0.4 kcal/mol. The same measure for ATGGTCACGTGTCGAA: 0.07 kcal/mol; for TGCAGCACGTGGATTG: -0.16 kcal/mol. ATTAGCACGTGTCAGG: the “relative binding free energy” value was -0.06 kcal/mol. The same measure for TGGTTCACGTGTTGGT: 0.34 kcal/mol; for GGTACCACGTGAGGGT: 0.13 kcal/mol. The same measure for GTCGGCACGTGTATTT: 0.17 kcal/mol; for GTGGACACGTGCGAGA: 0.06 kcal/mol. Turning to ATGGCCACGTGTATGT, the “relative binding free energy” value is -0.07 kcal/mol.

For the sequence CATGTCACGTGAAGGG, the “relative binding free energy” value is 0.31 kcal/mol. For CTTTACACGTGAGGGT the value was 0.36 kcal/mol; for TCGCCCACGTGGGGGG, -0.32 kcal/mol; for TGTCTCACGTGTAATT, 0.22 kcal/mol. The same measure for GGTTCCACGTGAGGAT: 0.27 kcal/mol; for ATGGGCACGTGTGGTG: -0.05 kcal/mol.

Regarding TTGCACACGTGTTGCG, the “relative binding free energy” value came out at 0.01 kcal/mol. For TGTGACACGTGCGTCT the value was -0.02 kcal/mol; for AAAATCACGTGGGTAG, -0.05 kcal/mol. For ATGAGCACGTGTGCAG the value was -0.21 kcal/mol; for TAGGACACGTGAGTTT, 0.35 kcal/mol; for TAAGACACGTGTTTTA, -0.04 kcal/mol. For GTGTGCACGTGTGGAA the value was 0.09 kcal/mol; for CGGTGCACGTGTGCGG, -0.12 kcal/mol.

For the sequence GTCATCACGTGGTTGG, the “relative binding free energy” value is 0.19 kcal/mol.

With TCTGTCACGTGAGTCG, the “relative binding free energy” value turned out to be 0.33 kcal/mol. The same measure for GACGGCACGTGTTGAT: 0.11 kcal/mol; for GGGGGCACGTGAATCT: 0.25 kcal/mol; for GTTTCCACGTGATGTG: 0.28 kcal/mol.

On to GTTTTCACGTGGGAGT, for which the “relative binding free energy” value came out at 0.33 kcal/mol. For TATAACACGTGAGTGG, the “relative binding free energy” value came to 0.16 kcal/mol.

TCTTACACGTGTTGGG: the “relative binding free energy” value is 0.2 kcal/mol. The same measure for AGCGACACGTGGTGAG: -0.03 kcal/mol; for TTGATCACGTGTTCAA: 0.21 kcal/mol. For the sequence TTATTCACGTGGGTTC, the “relative binding free energy” value is 0.05 kcal/mol. The same measure for ATTGTCACGTGTCTGG: 0 kcal/mol; for ATCTACACGTGGGCGT: -0.01 kcal/mol; for GTATTCACGTGACTAG: 0.41 kcal/mol. The same measure for AGTGACACGTGCTAGG: -0.12 kcal/mol; for AATAGCACGTGAAGGG: 0.23 kcal/mol; for TATTACACGTGTGTGC: 0.19 kcal/mol. For CGCTGCACGTGGTTTT the value was -0.04 kcal/mol; for TGAGTCACGTGGAATA, 0.09 kcal/mol. Consider GGTTTCACGTGGTAAG, for which the “relative binding free energy” value came out at 0.32 kcal/mol.

Take TTATACACGTGCTTGT: the “relative binding free energy” value amounted to 0.07 kcal/mol. The same measure for GTCAGCACGTGGTATA: 0.04 kcal/mol; for TTTGTCACGTGGGGGT: 0.04 kcal/mol; for AGTCTCACGTGGTGCG: 0.04 kcal/mol. Regarding TGAGACACGTGGAGTA, the “relative binding free energy” value is -0.06 kcal/mol. For TGTGTCACGTGGAAAT, the “relative binding free energy” value is 0.13 kcal/mol. AGACTCACGTGTGTAT: the “relative binding free energy” value is 0.24 kcal/mol. The same measure for TCTTACACGTGTGGTA: -0.01 kcal/mol.

With GGGGGCACGTGTAGTC, the “relative binding free energy” value is -0.03 kcal/mol.

In the case of TGGATCACGTGGCGGG, the “relative binding free energy” value was 0.05 kcal/mol.

On to TGTAACACGTGTTGAG, for which the “relative binding free energy” value was -0.04 kcal/mol. The same measure for TTTTCCACGTGGAGTT: 0.17 kcal/mol; for ATGTTCACGTGAAATG: 0.49 kcal/mol. On to GGTTACACGTGTATAG, for which the “relative binding free energy” value amounted to 0.17 kcal/mol. For GGGTTCACGTGACTGG, the “relative binding free energy” value was found to be 0.41 kcal/mol.

For the sequence TATGGCACGTGCTGGA, the “relative binding free energy” value was -0.23 kcal/mol.

Regarding TGATTCACGTGTAAGA, the “relative binding free energy” value turned out to be 0.27 kcal/mol. As for GGAAACACGTGGATTG, the “relative binding free energy” value was 0.06 kcal/mol. Turning to TTACGCACGTGGGTAG, the “relative binding free energy” value is -0.19 kcal/mol. GTTGTCACGTGGGTCT: the “relative binding free energy” value was 0.08 kcal/mol.

With GTACGCACGTGGATGT, the “relative binding free energy” value is -0.04 kcal/mol. For GCTTACACGTGTGGGT the value was 0.07 kcal/mol. For GTGTTCACGTGCGTAT the value was 0.11 kcal/mol.
